# Laboratory results from a collection of fitness landscapes (doi:10.1126/science.1257360).
# Some of the results follow.
# B1: PhoQ; a variant is named by its letters at X, in order, P23837 (parent)
# chain: MKKLLRLFFPLSLRVRFLLATAAVVLVLSLAYGMVALIGYSVSFDKTTFRLLRGESNLFYTLAKWENNKLHVELPENIDKQSPTMTLIYDENGQLLWAQRDVPWLMKMIQPDWLKSNGFHEIEADVNDTSLLLSGDHSIQQQLQEVREDDDDAEMTHSVAVNVYPATSRMPKLTIVVVDTIPVELKSSYMVWSWFIYVLSANLLLVIPLLWVAAWWSLRPIEALAKEVRELEEHNRELLNPATTRELTSLVRNLNRLLKSERERYDKYRTTLTDLTHSLKTPLXXLQXXLRSLRSEKMSVSDAEPVMLEQISRISQQIGYYLHRASMRGGTLLSRELHPVAPLLDNLTSALNKVYQRKGVNISLDISPEISFVGEQNDFVEVMGNVLDNACKYCLEFVEISARQTDEHLYIVVEDDGPGIPLSKREVIFDRGQRVDTLRPGQGVGLAVAREITEQYEGKIVAGESMLGGARMEVIFGRQHSAPKDE
# Variants of: B1
# Assay: enrichment ratio after two sorts for PhoP signalling (ratio (wild type AVST 3.29)); higher = more functional
# Details: with PhoP (E. coli)
row,Variant,enrichment ratio
1,MSTP,≤ 0.25
2,GRQP,≤ 0.25
3,NEKD,≤ 0.25
4,VTQH,0.76
5,YWKS,≤ 0.25
6,YTHS,≤ 0.25
7,HFEF,≤ 0.25
8,GGVF,≤ 0.25
9,KTGS,≤ 0.25
10,SNEM,≤ 0.25
11,WHYK,≤ 0.25
12,MYDN,≤ 0.25
13,QTDN,2.21
14,VNFD,0.628
15,FGFD,≤ 0.25
16,HYNG,≤ 0.25
17,KVQY,≤ 0.25
18,TSTC,17.2
19,VCFH,≤ 0.25
20,YSGN,≤ 0.25
21,DAHT,≤ 0.25
22,ISKP,≤ 0.25
23,PKWF,≤ 0.25
24,GPSM,≤ 0.25
25,RGSE,≤ 0.25
26,LDRI,≤ 0.25

row,Variant,enrichment ratio
1,FMWQ,≤ 0.25
2,DGGA,≤ 0.25
3,AYNP,≤ 0.25
4,MLHR,≤ 0.25
5,LNNK,≤ 0.25
6,EFIH,≤ 0.25
7,RDKG,≤ 0.25
8,IVSV,≤ 0.25
9,DELE,≤ 0.25
10,HKLD,≤ 0.25
11,QQLD,≤ 0.25
12,IRIC,≤ 0.25
13,MSYR,≤ 0.25
14,TYKT,≤ 0.25
15,YIFI,≤ 0.25
16,YSQP,≤ 0.25
17,NPIY,≤ 0.25
18,VTTI,2.22
19,EMPG,≤ 0.25
20,YANI,≤ 0.25
21,DPYV,2.59
22,DYNH,≤ 0.25
23,ATDC,≤ 0.25
24,PNCF,≤ 0.25
25,VDRA,≤ 0.25
26,NSKI,≤ 0.25

row,Variant,enrichment ratio
1,DYSY,≤ 0.25
2,PKSV,≤ 0.25
3,TDKN,≤ 0.25
4,VGAC,0.664
5,PTFM,≤ 0.25
6,MFIL,≤ 0.25
7,MFYA,≤ 0.25
8,RICP,≤ 0.25
9,ETIL,≤ 0.25
10,MAIM,≤ 0.25
11,WLCC,≤ 0.25
12,HSDG,≤ 0.25
13,IKAW,≤ 0.25
14,TNCE,≤ 0.25
15,DDAW,≤ 0.25
16,RVMP,≤ 0.25
17,LNAC,≤ 0.25
18,GHPC,≤ 0.25
19,NCYK,≤ 0.25
20,SRTR,≤ 0.25
21,ASMF,5.95
22,FCIC,≤ 0.25
23,DKCR,≤ 0.25
24,VLQI,≤ 0.25
25,VLKC,≤ 0.25
26,VKAY,0.987

row,Variant,enrichment ratio
1,AHAY,1.08
2,HNTK,≤ 0.25
3,VNGG,≤ 0.25
4,SFDL,≤ 0.25
5,GHQI,≤ 0.25
6,LNQR,≤ 0.25
7,RGSP,≤ 0.25
8,VQKP,≤ 0.25
9,SCQL,9.36
10,GVCS,5.96
11,TGKH,≤ 0.25
12,GRTV,≤ 0.25
13,DCVE,≤ 0.25
14,GFLV,≤ 0.25
15,KSRK,≤ 0.25
16,TPAA,≤ 0.25
17,MKNI,≤ 0.25
18,LWKD,≤ 0.25
19,HIPM,≤ 0.25
20,FAPN,≤ 0.25
21,VQIS,≤ 0.25
22,QACG,≤ 0.25
23,SNYC,≤ 0.25
24,SPFY,≤ 0.25
25,WRSM,≤ 0.25
26,NDPA,≤ 0.25

row,Variant,enrichment ratio
1,VGGI,0.91
2,ATGD,≤ 0.25
3,DHFK,≤ 0.25
4,HDNL,≤ 0.25
5,INHG,≤ 0.25
6,PECG,≤ 0.25
7,PRYL,≤ 0.25
8,FQDS,≤ 0.25
9,MHKN,≤ 0.25
10,WNPF,≤ 0.25
11,FKKT,≤ 0.25
12,YCGG,≤ 0.25
13,THLH,5.97
14,CIKP,≤ 0.25
15,VARP,≤ 0.25
16,DWTY,≤ 0.25
17,GSCS,5.76
18,IACH,≤ 0.25
19,SKWC,≤ 0.25
20,GMRY,≤ 0.25
21,TRGF,≤ 0.25
22,GRRY,≤ 0.25
23,KVPK,≤ 0.25
24,RFDI,≤ 0.25
25,QKGK,≤ 0.25
26,PKYK,≤ 0.25

row,Variant,enrichment ratio
1,FQIG,≤ 0.25
2,PWSW,≤ 0.25
3,VHII,≤ 0.25
4,IDGH,≤ 0.25
5,QCNY,4.56
6,MSNH,≤ 0.25
7,IEDW,≤ 0.25
8,PCTM,≤ 0.25
9,PMHS,≤ 0.25
10,LFDL,≤ 0.25
11,LEVH,1.93
12,ERCC,≤ 0.25
13,YIRE,≤ 0.25
14,QGPI,≤ 0.25
15,EHWI,≤ 0.25
16,ATAQ,8.57
17,HPWP,≤ 0.25
18,HHSD,≤ 0.25
19,NVKA,≤ 0.25
20,MYAQ,≤ 0.25
21,SWPY,≤ 0.25
22,EKPG,≤ 0.25
23,NDHQ,≤ 0.25
